Data from PubChem BioAssay AID686978 (National Center for Advancing Translational Sciences (NCATS), 2013).
The campaign covered roughly 420,000 compounds. About 64,000 (15%) were called active. Inconclusive means that the source gave no clear call. Such entries were picked first, then a sample of the others. Calls follow the shape of the dose curve; as a rule, active = well fitted inhibition curve with a large enough effect; inconclusive = small, poorly fitted or top-dose-only effect; inactive = flat fitted curve, though single readings scatter. Potencies of inconclusive entries are left out as doubtful fits.
% is scaled to controls: 0 for no effect and ±100 for the full control effect; potency is read from the fitted curve at half-maximal effect; tags tell the direction and shape of the fitted curve.

Assay: qHTS for Inhibitors of human tyrosyl-DNA phosphodiesterase 1 (TDP1): qHTS in cells in absence of CPT; also: nearly all actives have a fitted effect of over 55% in size
Conditions: DT40 Tdp1-/- hTDP1 cells, no CPT, ATP luminescence, 48 h; activity change, negative = growth inhibition: at 46.2 µM (top of the series)
Summary of the method: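 Growth kinetics read by CellTiter-Glo luminescence after ≥48 hr at 37 °C. Cells: DT40 Tdp1-/- stably carrying human TDP1, 400 per well, compound exposure in the absence of CPT (DMSO vehicle).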
For `CCOc1cc(/C=C/C(=O)c2ccc(OC)c(CN3CCOCC3)c2)cc(Br)c1O`, the Potency was inconclusive [inhibitor, single point]. With `CCOc1ccc(NC(=O)C2CCCN(c3ccc(Sc4ccc(C)cc4)nn3)C2)cc1` (stereo unspecified) the “activity change, negative = growth inhibition” value was inactive: -21%. With `CCc1cc(C(c2cccc(OC)c2)N2CCOCC2)c(NC(=O)c2ccccc2)s1` (stereo unspecified) the Potency was active: 14.6 µM. With `CC(C)C[C@@H](CN)NC(=O)c1nc[nH]c1C(=O)N[C@@H](C)C(=O)CNC[C@H](C)NC(=O)c1nc[nH]c1C(=O)N[C@@H](CC(=O)O)C(=O)O` the “activity change, negative = growth inhibition” value was inactive: -6.15%. For `CN1CCN(c2ccccc2NC(=O)c2ccc(OCc3ccccc3)cc2)CC1`, the Potency was inconclusive [inhibitor, partial curve, poor fit]. In the case of `CCn1c2ccccc2c2c3ncc4cccn4c3ccc21`, the Potency is reported as active: 6.51 µM. For `Cc1cccc(NC(=O)COc2ccccc2)c1`, the “activity change, negative = growth inhibition” value was inactive: -0.466%. With `CCCCCCCCC(=O)NC(NC(=S)N1CCOCC1)C(Cl)(Cl)Cl` (stereo unspecified) the Potency was active: 14.6 µM. In the case of `O=C(O)CCn1c2ccccc2c2nc3ccccc3nc21`, the Potency is reported as inconclusive [inhibitor, single point]. In the case of `CC(C)[C@H](NC(=O)N1c2ccccc2NC(=O)[C@@H]1C(C)C)C(=O)N[C@H](Cc1ccccc1)C(=O)O`, the “activity change, negative = growth inhibition” value is reported as inactive: -0.289%. In the case of `O=C(Cn1cnc([N+](=O)[O-])n1)N/N=C/c1cc(Cl)ccc1O`, the Potency is reported as active: 7.31 µM. For `c1ccc(NN=C2c3ccccc3-c3ccccc32)cc1`, the Potency was inconclusive [inhibitor, partial curve]. For `COC(=O)[C@]12CCCCC=C1N(Cc1ccco1)C(=O)[C@H](CC(=O)N1CCC(c3ccccc3)CC1)C2`, the Potency was inconclusive [inhibitor, single point]. For `COc1ccc(NC(=O)N2CC3(CCN(S(C)(=O)=O)CC3)C2)cc1`, the “activity change, negative = growth inhibition” value was inactive: -11.3%. For `CCn1c(/N=C/c2ccccc2NS(=O)(=O)c2ccc(C)cc2)nc2ccccc21`, the Potency was inconclusive [inhibitor, single point]. With `O=C(NC(Cc1c[nH]c2ccccc12)C(=O)Nc1ccc(F)cc1)c1cccs1` (stereo unspecified) the Potency was inconclusive [inhibitor, partial curve, poor fit]. For `CC(=O)c1ccc2noc(-c3ccc(F)cc3)c2c1`, the Potency was inconclusive [inhibitor, single point]. With `Cc1cccc(NC(=O)c2cc3c(=O)n4cccc(C)c4nc3s2)c1C` the Potency was active: 2.31 µM. With `O=C1c2ccccc2NC(c2ccccn2)N1c1ccccc1F` (stereo unspecified) the “activity change, negative = growth inhibition” value was inactive: -2.13%. In the case of `CC(=O)Cc1nsc(NC(=O)c2cc(-c3ccccc3Cl)oc2C)n1`, the activity change, negative = growth inhibition is reported as inconclusive: -30.4% [inhibitor]. In the case of `N=c1n(CC(=O)c2ccc([N+](=O)[O-])cc2)c2ccccc2n1Cc1ccccc1`, the Potency is reported as active: 5.8 µM. In the case of `O=C(NC12CC3CC(CC(C3)C1)C2)c1ccc(S(=O)(=O)N2CCOCC2)cc1`, the Potency is reported as inconclusive [inhibitor, partial curve]. In the case of `COc1ccc(CNC(=O)c2cc(-c3cc(C)cc(C)c3O)n[nH]2)cc1`, the Potency is reported as inconclusive [inhibitor, single point]. For `Cc1cc(S(=O)(=O)N2CCCC2)ccc1OCC(=O)N1CCOCC1`, the “activity change, negative = growth inhibition” value was inactive: -4.95%. For `CCn1c(=N)n(CC(O)c2ccccc2)c2ccccc21` (stereo unspecified), the “activity change, negative = growth inhibition” value was inactive: -28%. In the case of `Cc1cc(C)c[n+](CC(=O)c2ccc(NC(=O)c3ccccc3)cc2)c1`, the Potency is reported as inconclusive [inhibitor, single point]. For `COc1ccccc1NC(=O)C1=C(C)Nc2nnnn2C1c1ccncc1` (stereo unspecified), the Potency was inconclusive [inhibitor, single point]. With `COc1ccc(S(=O)(=O)N2CCOCC2)cc1NC(=O)C1COc2ccccc2O1` (stereo unspecified) the Potency was inconclusive [inhibitor, partial curve, poor fit]. For `Cc1cccc(NC(=O)c2ccc3snnc3c2)c1C`, the “activity change, negative = growth inhibition” value was inactive: -9.48%. For `CCOC(=O)C1=C(Nc2ccccc2)CSC1`, the “activity change, negative = growth inhibition” value was inactive: 0.167%. In the case of `C=CCn1c(-c2cc3c(s2)CCC(CC)C3)n[nH]c1=S` (stereo unspecified), the Potency is reported as inconclusive [inhibitor, single point]. For `Cc1ccc(-n2c(=O)[nH]c3c(C(N)=O)nc(CC(C)C)nc32)cc1`, the “activity change, negative = growth inhibition” value was inactive: -14.3%. With `Cc1cc(C(=O)N2CCC(C)CC2)on1` the “activity change, negative = growth inhibition” value was inactive: 22.7%. For `O=C(CSc1cccc[n+]1[O-])Nc1ccccc1Oc1ccccc1`, the Potency was active: 1.46 µM. With `COc1ccccc1C(=O)N1CC(=O)Nc2ccc(C)cc2C1c1ccc(F)cc1` (stereo unspecified) the “activity change, negative = growth inhibition” value was inactive: -20%. With `CCC(=O)Nc1cccc(C2=NOC3(C2)C[C@H](C(N)=O)N(C(=O)c2ccc(Cl)cc2)C3)c1` (stereo partly specified) the “activity change, negative = growth inhibition” value was inactive: 0.511%. For `CCOc1cc(/C=C/c2nc3ccccc3c(=O)[nH]2)ccc1O`, the Potency was inconclusive [inhibitor, single point]. With `COc1ccc(N2CCN(C(=O)COc3ccccc3)CC2)cc1` the “activity change, negative = growth inhibition” value was inactive: -11.8%. With `CCOC(=O)C1=C[C@@H](C2CCCC2)N(S(=O)(=O)c2ccc([N+](=O)[O-])cc2)[C@H]1c1ccccc1` the Potency was active: 11.6 µM. For `CC(C)CN(CCCNC(=O)CN1N=C(c2ccc(Cl)cc2)CCC1=O)CC(C)C`, the Potency was inconclusive [inhibitor, single point]. In the case of `COc1ccc(NC(=O)c2cc(S(=O)(=O)N3CCOCC3)ccc2C)cc1S(=O)(=O)N1CCCCC1`, the Potency is reported as inconclusive [inhibitor, single point]. With `C[C@H](CO)N1C[C@H](C)[C@@H](CN(C)S(=O)(=O)c2cccs2)Oc2ccc(NC(=O)Cc3ccccc3)cc2C1=O` the Potency was inconclusive [inhibitor, single point]. In the case of `C/C(=N\NC(=O)CC1N=C(Cc2ccccc2)NNC1=O)c1ccc(Cl)cc1Cl` (stereo unspecified), the Potency is reported as inconclusive [inhibitor, single point]. For `COc1ccc2cc(C3(C)NC(=O)N(CC(=O)NCCC4=CCCCC4)C3=O)ccc2c1` (stereo unspecified), the Potency was inconclusive [inhibitor, single point]. For `O=C(Nc1nc(-c2ccccc2)cs1)c1ccco1`, the Potency was inconclusive [inhibitor, partial curve]. For `O=C1CC(c2ccc(F)cc2)Cc2nc(NCC3CCCO3)ncc21` (stereo unspecified), the Potency was inconclusive [inhibitor, single point].
